Source: PubChem BioAssay AID445 (National Center for Advancing Translational Sciences (NCATS), 2006)
The campaign covered roughly 110,000 compounds. About 40 (0.04%) were called active. This list was built around the results that the source calls inconclusive (neither active nor inactive); the mix of calls is not that of the screen. The call rests on the fitted dose curve; in most records, active means well fitted curve in the direction sought with a large enough effect in the signal ratio (not every such curve was filed as active); inconclusive means small, poorly fitted or top-dose-only effect, or a change in a side signal; inactive means flat fitted curve, though single readings scatter; the % refers to the signal ratio. Potencies of inconclusive entries are doubtful fits and often do not repeat.

Test: IkB Signaling;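 on IkBa stabilization activation: 0% = basal untreated cells and 100% = reference inhibitor full response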
Settings: ABC-DLBCL IkBa-CBG/CBR dual luciferase ratio (green luciferase fused to IkBa over red control in OCI-Ly3 lymphoma cells), 4 h; IkBa stabilization activation: at 57.1 µM (top of the series), scaled: untreated 0%, proteasome inhibitor 100% unless noted
Outline: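 In this assay, an IκBα–CBG68 fusion accumulates when IKK-driven degradation is blocked; native CBR normalizes for cell number. OCI-Ly3 cells were treated 4 h with compound and doxycycline, then green and red light read after Chroma-Glo addition.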
Potency means the concentration at half of the fitted maximal effect.

Row | SMILES | IkBa stabilization activation | Potency
1 | COc1ccc(C2=NOC(C(=O)NCc3ccc(F)cc3)C2)cc1OC (stereo not given) | inactive: 2.85% | –
2 | COc1ccccc1N1CCN(C(=O)C2CCN(S(=O)(=O)c3cccc4nonc34)CC2)CC1 | inconclusive: 4.18% [signal inhibitor] | –
3 | COc1ccc(CC(=O)Nc2cccc(-c3nnc(-c4ccc(C)cc4)o3)c2)cc1OC | inconclusive: -5.97% [signal inhibitor] | –
4 | CC(C)COc1ccc(C(=O)NCC2OCCc3ccccc32)cc1 (stereo not given) | inconclusive: 7.01% [signal inhibitor] | –
5 | CCOc1ccc(CCNC(=O)C2CCCN(c3nnc(C)c4c(C)n(-c5ccccc5)nc34)C2)cc1 (stereo not given) | inconclusive: -2.97% [signal inhibitor] | –
6 | COc1cc2c(cc1OC)-c1nnc(C)n1C1(CCCC1)C2 | inactive: -2.64% | –
7 | NC(=O)c1c(NC(=O)c2noc3c2CCCC3)sc2c1CCCC2 | – | inconclusive: 25.1 µM [signal activator, single point]
8 | Cc1ccc(Oc2cc(C)nc(-c3ccccc3O)n2)cc1 | inactive: -1.28% | –
9 | CC(=O)N1c2c(cc(Br)cc2S(=O)(=O)N2CCN(c3ccccn3)CC2)CC1C (stereo not given) | inconclusive: 4.33% [signal inhibitor] | –
10 | CCc1ccccc1Nc1nn2c(=O)c3ccc(C(=O)NCCc4ccccc4)cc3nc2s1 | inconclusive: -1.25% [signal inhibitor] | –
11 | Cc1cccc(C(=O)NC2(C(F)(F)F)N=C(c3ccccc3)N(Cc3ccccc3)C2=O)c1 (stereo not given) | inconclusive: 1.88% [signal inhibitor] | –
12 | Cc1c(N=C/C=C/c2ccccc2)cnn1C | inactive: -0.119% | –
13 | O=C(CSc1nc2ccccc2n1CC(=O)Nc1ccc(F)cc1F)Nc1ccc(F)cc1 | – | inconclusive: 15.8 µM [signal inhibitor, partial curve]
14 | COc1cccc(Cn2c(=O)c(-c3cccc(C#N)c3)nc3cnc(OC)nc32)c1 | inactive: -0.662% [at 11.4 µM, scaled: untreated 0%, proteasome inhibitor 100%] | –
15 | CC(=O)[C@H]1CC[C@@H]2[C@]1(C)CC=C1[C@]23C=C[C@]2(C[C@H](O)CC[C@@]12C)[C@H](C(=O)O)[C@@H]3C(=O)O | inactive: 1.52% [at 11.4 µM, scaled: untreated 0%, proteasome inhibitor 100%] | –
16 | COc1ccc(-n2c(SCc3nc(-c4ccc(C)cc4)no3)nnc2-c2ccncc2)cc1 | inconclusive: -0.546% [signal inhibitor] | –
17 | CCOc1ccc2c(c1)c(=O)c(S(=O)(=O)c1ccc(C)cc1)cn2CC(=O)Nc1ccc(C)cc1 | inconclusive: 0.153% [signal inhibitor] | –
18 | CCn1c(=O)c2cc(C(=O)NCCc3cccc(C)c3)sc2c2ccccc21 | inconclusive: -0.208% [signal inhibitor] | –
19 | O=C(Nc1ccccc1)c1ccc2nc(-c3ccco3)c(-c3ccco3)nc2c1 | inconclusive: 10.5% [signal inhibitor] | –
20 | CCCN(C(=O)C1CCN(S(=O)(=O)c2c(C)noc2/C=C/c2ccc(C)cc2)CC1)c1ccccc1F | inactive: -1.35% | –

Row | SMILES | IkBa stabilization activation | Potency
21 | CC(=O)c1ccc(NC(=O)c2cccc(NC(=O)N3CCSc4ncccc43)c2)cc1 | inconclusive: 8.1% [signal inhibitor] | –
22 | CCOC(=O)c1cnc(-n2nc(C)cc2C)nc1NCc1ccccc1 | inconclusive: -5.12% [signal inhibitor] | –
23 | CCOCCCNC(=O)c1c(NC(=O)Cc2coc3c(C)c(C)ccc23)sc2c1CCC2 | inconclusive: 0.0732% [signal inhibitor] | –
24 | Cc1onc(-c2ccccc2Cl)c1C(=O)N1CCc2ccccc21 | inconclusive: 2.84% [signal inhibitor] | –
25 | COC(=O)c1cc(C)nc2c1c(=O)nc(SCc1cc(C)ccc1C)n2C1CC1 | inconclusive: -1.07% [signal inhibitor] | –
26 | Clc1nc(NCCc2ccccc2)c2ncn(-c3ccccc3)c2n1 | inactive: 1.22% [at 11.4 µM, scaled: untreated 0%, proteasome inhibitor 100%] | –
27 | CCCN(Cc1cc2cc(C)ccc2[nH]c1=O)C(=O)c1cccc(Cl)c1 | inconclusive: 1.42% [signal inhibitor] | –
28 | COc1ccccc1Nc1nnc(SCC(=O)N2CCCC2=O)s1 | inconclusive: 2.98% [signal inhibitor] | –
29 | O=C1c2ccccc2S(=O)(=O)N1CC1CC(c2ccccc2)=NO1 (stereo not given) | inactive: -1.56% | –
30 | Cc1ccc(-c2nnn(CC(=O)N(Cc3ccco3)C(C(=O)NC(C)(C)C)c3cccs3)n2)o1 (stereo not given) | inconclusive: 9.37% [signal inhibitor] | –
31 | N#CC1=C(N)Oc2n[nH]c(-c3ccccc3)c2C1c1cccnc1 (stereo not given) | inactive: 5.56% | –
32 | Cc1c(Cl)cccc1NC(=O)N1CCN(Cc2cc(=O)n3nc(-c4ccccc4F)sc3n2)CC1 | inconclusive: 0.468% [signal inhibitor] | –
33 | CCCS(=O)(=O)N1CCC(N2CCN(Cc3ccc(C)cc3)C(=O)C2=O)CC1 | inactive: 0.589% | –
34 | O=C(Nc1ccc2ccccc2c1)N1CCN(c2ncccc2C(F)(F)F)CC1 | inconclusive: 2.01% [signal inhibitor] | –
35 | COc1cccc(Cn2c(=O)c(C)nc3cnc(OCc4ccccc4)nc32)c1 | inactive: 1.49% [at 11.4 µM, scaled: untreated 0%, proteasome inhibitor 100%] | –
36 | O=c1c(-c2ccc(F)cc2)nc2cnc(N3CCOCC3)nc2n1C[C@H]1CCCO1 | inactive: -0.855% [at 11.4 µM, scaled: untreated 0%, proteasome inhibitor 100%] | –
37 | Cc1cc(C)c2c(=O)cc(C(=O)NCCc3ccc(S(N)(=O)=O)cc3)oc2c1 | inactive: 1.44% | –
38 | CN[C@@H](c1ccncc1)[C@@H](NC)c1ccncc1 | inactive: -0.581% [at 11.4 µM, scaled: untreated 0%, proteasome inhibitor 100%] | –
39 | COc1ccccc1C(=O)NCCn1cc(SCC(=O)NCc2ccco2)c2ccccc21 | inconclusive: 0.391% [signal inhibitor] | –
40 | CC1CN(c2oc(COc3ccc(Cl)cc3Cl)nc2C#N)CC(C)O1 (stereo not given) | inconclusive: 0.0717% [signal inhibitor] | –
